The source of these data is the supplement of paper PMC10126150.

Sequences with one replicate were seen in a single cluster, so their values are uncertain.

The data set concerns ATP. In words: switch fluorescence ratio, 500 uM ATP over buffer (Cy3 cluster intensity, sum of 5 cycles each) (fold (ratio)); higher = stronger signal-on switching upon ATP binding; sequences stand for … in TCGTCGGCAGCGTCAGATGTGTATAAGAGACAGTTTTTTTTTTTTTTTTTTTTTTTTT…TC. The conditions noted are these: aptamer strand: ATP DNA aptamer (quencher-CACCTGGGGGAGTATTGCGGAGGAAGG + anchor), 100 nM annealed; ATP concentration: 500 uM; one replicate. Summed up: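 Exposure to 500 uM ATP lasted 15 min at 22 °C before imaging, and a selection-buffer image was taken beforehand, for Cy3-labelled switching-strand clusters on a modified Illumina MiSeq flow-cell annealed to 100 nM quencher-labelled ATP aptamer. Five buffer/ATP cycles were run with NaOH stripping and re-annealing between them. The fluorescence ratio per cluster is summed target-cycle over summed buffer-cycle Cy3 intensity, averaged per switch-domain sequence. Clusters outside 100-1000 RFU were excluded.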

In the case of ATAGTTACGG, the switch fluorescence ratio was 1.06.

Take CAGGACTCCT: the switch fluorescence ratio is 1.09. To CTAGACGTCT belongs 1.03.

On to AAGGAGACG, for which the switch fluorescence ratio came to 1.03. For ATTTGCAGA the value was 0.945.

As to AGAGGGTGTT, the switch fluorescence ratio worked out at 1.07.

With GTGGTGATAA, the switch fluorescence ratio came out at 1.03.

In the case of TATCCGAA, the switch fluorescence ratio worked out at 1.04. For GCCCGTGGCA the value was 0.982; for CGGGAGGAAG, 0.981; for GTTGATCTG, 0.984. For CGCAATATTT the value was 4.74. To GGCAACGTAG belongs 0.995; to AAGTTATATT, 0.996. Regarding AAGTATGAA, the switch fluorescence ratio is 0.992.

TATTCCAATG: the switch fluorescence ratio is 1.05.

As to AGATACGAGC, the switch fluorescence ratio is 1.05. To CAAGAAGAA belongs 0.97; to TACGACTGCC, 1.15; to TCGAGTCGTC, 1.04. For GGTAGTTGCG the value was 0.959. Take CGAACCCCGT: the switch fluorescence ratio was found to be 0.947.

In the case of TTTTAAGGTT, the switch fluorescence ratio amounted to 1.01.

In the case of CCTACGGGAC, the switch fluorescence ratio came to 6.2. GCAAAATGAC: the switch fluorescence ratio turned out to be 1.01. Consider TATTTAAGAG, for which the switch fluorescence ratio was 0.943.

On to ATAGGTCAC, for which the switch fluorescence ratio was found to be 1.02. To AGTACAGGTA belongs 1.03; to GAAAGGTCTG, 1.02.

For GGCGGGTGAT, the switch fluorescence ratio was found to be 1.37. Turning to GCTCCCTAAG, the switch fluorescence ratio amounted to 1.49. Consider GTGCGGCATA, for which the switch fluorescence ratio amounted to 0.977. To CCAAAACA belongs 1.04. To CTCCCAAGGG belongs 3.14; to CACAATCTG, 0.999; to GAACGGTTGG, 1.01. In the case of AACATAGAGC, the switch fluorescence ratio came out at 1.03.

As for TTGGGTTGAC, the switch fluorescence ratio stood at 1. On to TTGGGGGA, for which the switch fluorescence ratio is 1.03. GTGACGACTT: the switch fluorescence ratio stood at 1.03. To GCCTGCGCTA belongs 4.18. For ATCGTAGTGA, the switch fluorescence ratio came out at 0.998. To GAACACACAT belongs 1.22.

Take AGGCTCACGT: the switch fluorescence ratio came to 1.03.

Consider TTGCGAGGCG, for which the switch fluorescence ratio came to 0.966. With CACAGGGGCT, the switch fluorescence ratio was 1.65. To GGCCTCCTTT belongs 1.02. On to GGCCGATGGT, for which the switch fluorescence ratio came out at 0.945. To GGGTAGCCCA belongs 0.995; to TAGAGGCCGA, 1.06. On to GTGGCAGTTC, for which the switch fluorescence ratio is 1.08. To CTATGATAGA belongs 1.01; to TCTACTCTCG, 1.01; to GTCCATGGAT, 0.993. For TAATCTACGA the value was 1.02; for TGAGTGTTAT, 0.997; for TGCGATCTAC, 1.25.

Consider GAAAAGAAAA, for which the switch fluorescence ratio turned out to be 1.1. For TGTAGCTATT the value was 1.1; for AGGGCTGGAA, 0.99; for ATTTGGATC, 1.01.

In the case of AAGGGCTCCC, the switch fluorescence ratio came out at 1.02.

Turning to CACTTGTGGC, the switch fluorescence ratio stood at 0.985. TTGGCGGGA: the switch fluorescence ratio worked out at 1.07. To TCTGGCCAAC belongs 1.04; to GCCTCACTCA, 1.07. On to GGTGCTAGAT, for which the switch fluorescence ratio came out at 1.02. To TCTTCTTGTA belongs 0.989; to CTGGTGCCGT, 1.13; to ACCCTGGATC, 1.06. For ACGACGGACA the value was 1.62; for CATAGTGAGT, 0.915. For GACGCAACTT the value was 3.11.

TCGTATGGG: the switch fluorescence ratio was 0.958. For TCTCCGTGTA the value was 4.03; for TTCAATTGAC, 1; for CAGGTTCAAG, 0.987. For GGGATGGAGC the value was 0.964; for CACATCTGAA, 1.02. To TTATTAATGC belongs 1.06; to AAAGAAATGA, 0.958; to CGCTTATAGA, 1.06. Consider TACCGTGCCC, for which the switch fluorescence ratio was found to be 1.13. For AGGTAATTGT the value was 0.982; for GTATCTCCTG, 1.06; for AGGGCTACAT, 0.991. For TGCTGTTTGA the value was 1.02; for TGAAAATGTG, 0.985; for TGACGGTCGG, 0.997. Consider CCTATCGTCA, for which the switch fluorescence ratio was 1.61. With ACGGGAGTA, the switch fluorescence ratio turned out to be 1.04.

Regarding ACTGGCATTA, the switch fluorescence ratio worked out at 1.07. For CAGGTGTAGG the value was 1.02. To GTTTAAGCAG belongs 0.97.

For the sequence TCTTTATTTA, the switch fluorescence ratio came out at 0.989.

Take TGCCTATTAT: the switch fluorescence ratio is 0.976. To AAACGCTTGG belongs 1.02; to AGTCTAGTTC, 0.99. For GATCGATCG the value was 0.996; for ATGGGCAAAT, 0.958. For CACCATATAC the value was 2.73; for TTTGAACAGT, 0.97; for CTATCGCGCC, 1.12. Consider ACGCATAATA, for which the switch fluorescence ratio amounted to 1.37. To TAACACGGGG belongs 1.07; to CAAAGGTCAA, 1.02; to CAGAATACTA, 1.04.

For CTTTTATCGA, the switch fluorescence ratio came out at 0.973. To CACCTCAATT belongs 1.1; to TATTATGTCC, 1.01; to AAAGCGCCGA, 0.941. For TCATAGTAAA the value was 1.01; for TTACCGAAAC, 1.21.

Take TTGATCTTCG: the switch fluorescence ratio was 0.981. For ATCATGTCCT the value was 1.07; for ACCACGGAGT, 1.02. For GTCGATCGGA the value was 0.995; for TGGAAGACCA, 1.01; for GCTATATCTC, 1.52.

For GCTTTCTTAT, the switch fluorescence ratio was 1.04.
